About 1,700 (0.52%) of roughly 330,000 compounds were called active. Inconclusive results, whose numbers are uncertain, are shown with a selection of clear calls. Calls come from the whole dose curve; as a rule, active = well fitted inhibition curve with a large enough effect; inconclusive = small, poorly fitted or top-dose-only effect; inactive = no such curve, though single readings can be large or run the other way. Where the call is inconclusive, the potency comes from a doubtful curve fit.
What follows are compounds tested against Beta-lactamase (Escherichia coli (strain K12)) (UniProt P00811) (assay: qHTS Inhibitors of AmpC Beta-Lactamase (assay without detergent)). Settings: AmpC nitrocefin hydrolysis, absorbance 480 nm, 0.0001% Triton; activity change, negative = inhibition: at 57.1 µM (top of the series) unless noted.
In short: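 AmpC (5.3 nM in the dispensed reagent) in 20 mM phosphate pH 7.0 with 0.01% (detergent screen) or 0.0001% Triton X-100 was preincubated with compounds for 15 min at room temperature. Nitrocefin was then added from an 800 uM solution, and hydrolysis was followed at 480 nm.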
Note: nearly all actives have a fitted effect of over 20% in size.
Potency is the fitted concentration of half-maximal effect; tags give direction and shape of the fitted curve.
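Throughout, for activity change, negative = inhibition: plate controls were no compound for no effect and no enzyme for full effect.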

Chain of UniProt P00811 (P00811 whole entry, looked up): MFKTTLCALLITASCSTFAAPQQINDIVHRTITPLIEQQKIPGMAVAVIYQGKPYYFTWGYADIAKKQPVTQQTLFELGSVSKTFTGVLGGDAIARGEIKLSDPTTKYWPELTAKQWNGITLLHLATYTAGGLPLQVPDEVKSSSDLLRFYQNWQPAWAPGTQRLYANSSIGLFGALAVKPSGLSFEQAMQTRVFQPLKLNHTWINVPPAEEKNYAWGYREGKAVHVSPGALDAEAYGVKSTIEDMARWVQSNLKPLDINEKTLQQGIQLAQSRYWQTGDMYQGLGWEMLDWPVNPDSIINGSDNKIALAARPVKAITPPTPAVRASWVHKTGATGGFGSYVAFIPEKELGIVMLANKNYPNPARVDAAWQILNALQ

| SMILES | Potency | activity change, negative = inhibition |
| --- | --- | --- |
| O=C(Cc1cccs1)N/N=C/C(Cl)=C/c1ccccc1 | inconclusive: 0.282 µM [inhibitor, full curve, poor fit] | – |
| O=C(Nc1cccc(F)c1)N(Cc1ccc(Cl)cc1)CC(O)C(F)(F)F (stereo not drawn) | inconclusive: 0.631 µM [inhibitor, partial curve, poor fit] | – |
| COc1ccc(-c2csc(Cc3nc(O)cs3)n2)cc1 | inconclusive: 25.1 µM [inhibitor, single point] | – |
| COc1ccc(N2C(=O)C3CCCN3C2=S)cc1 (stereo not drawn) | – | inactive: -26% |
| Cc1csc(=O)n1CC(=O)OCc1nnc(-c2ccc(Cl)cc2)o1 | inconclusive: 39.8 µM [inhibitor, single point] | – |
| O=C(CSc1nc(C2CC2)nc2ccccc12)N1c2ccccc2Sc2ccccc21 | active: 0.316 µM | – |
| Cc1ccc(S(=O)(=O)CC2CSc3nc4ccccc4n32)cc1 (stereo not drawn) | inconclusive: 6.31 µM [inhibitor, single point] | – |
| CCOc1ccc(C2C(C#N)=C(N)SC(N)=C2C#N)c(OCC)c1 | inconclusive: 4.47 µM [inhibitor, single point] | – |
| CC1=C(C(=O)NCCN2CCOCC2)C2(CCC(C)CC2)OC1=O (stereo not drawn) | inconclusive: 0.501 µM [inhibitor, full curve, poor fit] | – |
| Cc1ccc(NC(=O)c2cc(C(=O)c3cc(Cl)ccc3O)cn(-c3ccc(C)cc3)c2=O)cc1 | active: 3.16 µM | – |
| O=C(N[C@@H](Cc1ccccc1)c1nc2ccccc2[nH]1)c1cc([N+](=O)[O-])ccc1Cl | inconclusive: 14.1 µM [inhibitor, partial curve] | – |
| O=C(COc1ccccc1)Nc1nc2c(s1)CCCC2 | inconclusive: 28.2 µM [inhibitor, single point] | – |
| O=C(NNC(=O)c1cc2ccccc2cc1O)Nc1ccccc1F | active: 17.8 µM | – |
| O=C(Nc1ccc(F)cc1)c1cc(S(=O)(=O)N2CCCCC2)cs1 | active: 22.4 µM | – |
| Cc1ccc2c(c1)NC(=O)C(CC(=O)NCCCN1CCN(C3CCCCC3)CC1)O2 (stereo not drawn) | inconclusive: 6.31 µM [inhibitor, full curve, poor fit] | – |
| CCCN1C2CCCC1CC(NC(=O)c1ccccc1F)C2 (stereo not drawn) | inconclusive: 6.31 µM [inhibitor, single point] | – |
| CCc1ccc(NC(=O)C(=O)N/N=C(\C)CC(=O)NCc2ccc(Cl)cc2)cc1 | inconclusive: 31.6 µM [inhibitor, single point] | – |
| CC(C)(C)SCCNC(=O)c1ccc(Cl)c([N+](=O)[O-])c1 | – | inactive: -2.94% |
| O=C(Nc1nccs1)c1cc2sccc2n1Cc1ccc(F)cc1 | active: 22.4 µM | – |
| O=C1c2ccccc2NC(c2ccc(-c3cccs3)o2)N1O (stereo not drawn) | – | inactive: -25.4% |
| Cn1nnnc1Sc1ncnc2scc(-c3ccc4c(c3)OCO4)c12 | – | inactive: -21.3% |
| COc1ccc2nc(NC(=O)CNS(=O)(=O)c3cccs3)sc2c1 | inconclusive: 28.2 µM [inhibitor, single point] | – |
| Cc1cc(C)nc(SSc2nc(C)cc(C)n2)n1 | inconclusive: 31.6 µM [inhibitor, single point] | – |
| O=C1/C(=C/C=C/c2ccco2)SC(=S)N1c1ccc(O)cc1 | active: 15.8 µM | – |
| Cc1c(C(=O)Nc2nccs2)sc2nc(-c3cccs3)cc(C(F)(F)F)c12 | – | inactive: -30.2% |

| SMILES | Potency | activity change, negative = inhibition |
| --- | --- | --- |
| Cc1ccccc1NC(=O)CN1C(=O)N/C(=C\c2ccccc2OCc2ccc(C(=O)O)cc2)C1=O | inconclusive: 35.5 µM [inhibitor, single point] | – |
| COc1ccc(OC)c2[nH]c(=O)c(CCNC(=O)C(C)C)cc12 | active: 10 µM | – |
| c1ccn2c(SCc3cn4ccsc4n3)nnc2c1 | inconclusive: 5.62 µM [inhibitor, partial curve, poor fit] | – |
| COc1ccc(N(CC(=O)N/N=C/c2cccs2)S(=O)(=O)c2ccccc2)cc1 | inconclusive: 20 µM [inhibitor, partial curve] | – |
| O=S(=O)(Nc1ccc2nc(-c3ccc(Br)o3)[nH]c2c1)c1ccccc1 | active: 25.1 µM | – |
| Cc1nc(SCC(=O)OCc2ccccc2)c(C#N)c(-c2ccccc2)c1C(=O)Nc1ccccc1 | inconclusive: 3.98 µM [inhibitor, single point] | – |
| COc1ccc(CC(=O)Nc2cccc(-c3cn4ccccc4n3)c2)cc1 | inconclusive: 7.94 µM [inhibitor, full curve, poor fit] | – |
| CCCSc1nnc(N2C(=O)CC(c3ccsc3)C3=C2CCCC3=O)s1 (stereo not drawn) | active: 4.47 µM | – |
| CC(C)CCSc1cc(NCCO)c([N+](=O)[O-])c2nonc12 | – | inactive: 22.2% |
| O=S(=O)(Nc1ccc2c(c1)nc1n2CCOC1)c1ccccc1 | inconclusive: 6.31 µM [inhibitor, single point] | – |
| O=C(CSc1nc2ccccc2c(=O)n1Cc1ccco1)c1ccccc1 | – | inactive: -28.1% |
| O=C(COC(=O)c1ccc(Br)o1)Nc1nc2c(F)c(F)c(F)cc2s1 | inconclusive: 14.1 µM [inhibitor, partial curve] | – |
| COc1cc2c(cc1NC(=O)CSc1nc3ccccc3[nH]1)oc1ccccc12 | active: 7.94 µM | – |
| CCCCN(C)C(=O)CS(=O)(=O)Cc1nc(-c2cccc(OC)c2)oc1C | active: 11.2 µM | – |
| COc1ccc(N2CCN(S(=O)(=O)CCNS(=O)(=O)c3ccccc3)CC2)cc1 | inconclusive: 31.6 µM [inhibitor, single point] | – |
| O=C(CSc1ccccc1)NCC1(N2CCCCC2)CCCCC1 | inconclusive: 39.8 µM [inhibitor, single point] | – |
| Cc1ccc2cc(-c3noc(C4CCCO4)n3)c(=O)[nH]c2c1 (stereo not drawn) | – | inactive: -19.9% |
| CN(CC(=O)Nc1cccc(F)c1)C(=O)CCCc1nc2ccccc2c(=O)[nH]1 | inconclusive: 35.5 µM [inhibitor, single point] | – |
| CSc1cccc(NC(=O)CCn2c(=O)c3cccn3c3cccnc32)c1 | inconclusive: 39.8 µM [inhibitor, single point] | – |
| COC(=O)c1ccc2c(c1)nc(C)n2CCO | inconclusive: 5.01 µM [inhibitor, single point] | – |
| O=C(Cn1cnc2ccccc2c1=O)c1ccc(OC(F)F)cc1 | – | inactive: -25.6% |
| COc1ccc(NC(=O)C(=O)NNC(=O)C(C)Oc2ccc(Cl)cc2Cl)cc1 (stereo not drawn) | active: 31.6 µM | – |
| O=C(NCc1ccc(Cl)cc1)C(=O)NCC1CCCN1S(=O)(=O)c1cccs1 (stereo not drawn) | active: 35.5 µM | – |
| COc1cccc(NC(=O)C(C)N2C(=O)c3ccccc3S2(=O)=O)c1 (stereo not drawn) | inconclusive: 31.6 µM [inhibitor, single point] | – |
| Cc1cc2cc(CNC(=S)NC3CCCCC3)ccc2[nH]1 | inconclusive: 17.8 µM [inhibitor, single point] | – |

| SMILES | Potency | activity change, negative = inhibition |
| --- | --- | --- |
| O=C(Cn1[nH]c(=O)c2ccccc2c1=O)Nc1cccc(S(=O)(=O)N2CCCCCC2)c1 | inconclusive: 11.2 µM [inhibitor, partial curve] | – |
| CC(C)(C)c1ccc(C(=O)N/C(=C/c2cccs2)C(=O)NCc2ccco2)cc1 | inconclusive: 20 µM [inhibitor, partial curve] | – |
| O=C(CN1C(=O)C2CC=CCC2C1=O)Nc1ccccc1N1CCCC1 (stereo not drawn) | inconclusive: 39.8 µM [inhibitor, single point] | – |
| O=C(O)CCc1ccc(-c2ccc(F)cc2)n1Cc1ccco1 | – | inactive: -22.6% |
| O=C(Nc1ccccc1C(=O)NCc1ccco1)c1ccco1 | inconclusive: 39.8 µM [inhibitor, single point] | – |
| CN(C)S(=O)(=O)c1cccc(C(=O)NCC2CCCCC2)c1 | – | inactive: 14.2% |
| O=C(Nc1nc(-c2ccncc2)cs1)C1COc2ccccc2O1 (stereo not drawn) | inconclusive: 7.94 µM [inhibitor, full curve, poor fit] | – |
| O=C(O)CN1C(=O)/C(=C\c2cc([N+](=O)[O-])ccc2OCc2ccccc2Cl)SC1=S | inconclusive: 28.2 µM [inhibitor, single point] | – |
| CCOC(=O)N1CCN(S(=O)(=O)CCNC(=O)c2ccccc2)CC1 | inconclusive: 25.1 µM [inhibitor, single point] | – |
| CC(=O)c1ccc(NC(=S)NC(NC(=O)c2ccco2)C(Cl)(Cl)Cl)cc1 (stereo not drawn) | active: 12.6 µM | – |
| Cc1ccc2nsnc2c1S(=O)(=O)Nc1ccccc1C(=O)O | – | inactive: -15.1% |
| O=C(NC1=NCCS1)c1cccc(S(=O)(=O)N2CCc3ccccc32)c1 | inconclusive: 3.98 µM [inhibitor, full curve, poor fit] | – |
| CCOC(=O)N1CCN(C(=O)CCS(=O)(=O)c2cc3c(cc2Cl)NC(=O)CO3)CC1 | – | inactive: -20.3% |
| Cc1cccc(C(=O)NCCc2csc(C)n2)c1 | active: 3.55 µM | – |
| CN(C(=O)COc1ccccc1)c1nnc(C23CC4CC(CC(C4)C2)C3)s1 | inconclusive: 39.8 µM [inhibitor, single point] | – |
| NNC(=S)Nc1ccc(S(=O)(=O)N2CCCCC2)cc1 | inconclusive: 28.2 µM [inhibitor, single point] | – |
| O=C(Nc1ccccc1)OCCCc1ccccc1 | – | inactive: -24.4% |
| O=C(CN1C(=O)CCSc2ccccc21)N1CCC2(CC1)OCCO2 | active: 0.282 µM | – |
| CCn1c2ccccc2c2cc(NC(=O)COC(=O)c3cc(S(N)(=O)=O)c(Cl)cc3Cl)ccc21 | inconclusive: 5.01 µM [inhibitor, full curve, poor fit] | – |
| Cc1cccc(C(=O)NC(=S)NNC(=O)c2cccs2)c1 | inconclusive: 35.5 µM [inhibitor, partial curve] | – |
| Cc1c(Cl)cccc1NC(=S)NCCc1ccc(Cl)cc1 | – | inactive: -28.9% |
| Cc1csc(C(=O)O)c1-n1cccc1 | active: 0.282 µM | – |
| COc1cccc(C2CC(c3cccc(Br)c3)n3nc(N)nc3N2)c1 (stereo not drawn) | inconclusive: 11.2 µM [inhibitor, partial curve, poor fit] | – |
